Reference: the supplement of paper PMC7125110
± gives the standard error. This sample is rich in variants without activity.

B1: glmS ribozyme (parent)
chain: AUAAAAGCGCCAGAACUACAGAAAUGUAGUUGACGAGGAGGAGGUUUAUCGAAUUUUCGGCGGAUGCCUCCAAA

Variants of: B1
Assay: self-cleavage kobs at 2500 uM GlcN6P; higher = faster cleavage; RNA array
Details: with glucosamine-6-phosphate
Outline: (§1)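 E. coli RNA polymerase transcribed barcoded ribozyme variants in situ on sequenced MiSeq chips, which were tracked via a hybridised Cy3 probe at 37 °C. Tiles were imaged over ~14 h after glucosamine-6-phosphate (40 μM to 10 mM) in HEPES/KCl/Mg(OAc)2 buffer was flowed in. Normalised per-tile medians were fit to one- or two-exponential decays for kobs, and kcat and KM came from weighted Michaelis–Menten fits.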

| Variant | self-cleavage kobs at 2500 uM GlcN6P [s⁻¹] |
| --- | --- |
| A6C U31A U57G C67A | < 1e-05 |
| G7A C50A G63U | < 1e-05 |
| C8A G9A C16G U31C C61G C68U | < 1e-05 |
| A33C G60A | < 1e-05 |
| A6U U30A A33U A48G | < 1e-05 |
| C8G U46C A53C | < 1e-05 |
| C34G A39U G59U | < 1e-05 |
| U45G U47C C61U | < 1e-05 |
| A6G A14G G40A | 3.86e-05 ± 1.1e-05 |
| C61G G63U | < 1e-05 |
| A6G A12U G32U | < 1e-05 |
| G9C U69A C70U | < 1e-05 |
| A6C G32U C58U | < 1e-05 |
| G7U C67A C68A | < 1e-05 |
| G7A G44C A48G | < 1e-05 |
| G7U A33U G60C | < 1e-05 |
| G13C A64U | < 1e-05 |
| A6U A12U U55A | 0.000377 ± 9.2e-05 |
| A42G G51A C61G | < 1e-05 |
| U46G U55G G60C | < 1e-05 |

| Variant | self-cleavage kobs at 2500 uM GlcN6P [s⁻¹] |
| --- | --- |
| A6G A12U C67U | 0.000919 ± 0.00023 |
| G7C G35U A53C U55C C67U | < 1e-05 |
| A6U G35U A53C | < 1e-05 |
| C8U G13U U46A | < 1e-05 |
| A6U C8G | < 1e-05 |
| G9U G32C G51C C58U | < 1e-05 |
| C11A A39C U49C | < 1e-05 |
| G7A U31G A33U C68G | < 1e-05 |
| U30G G41C G60A | < 1e-05 |
| G9C C11A G37C U54A C70G | < 1e-05 |
| A6U A36U G44U | < 1e-05 |
| G37C C58G | < 1e-05 |
| A6G G40U U65C | < 1e-05 |
| C8A A33U C70U | < 1e-05 |
| A36C G38C U56C | < 1e-05 |
| G7A G13A C34U | < 1e-05 |
| A6C A48C G51U | < 1e-05 |
| A6C G41U C50G A53U U55C | < 1e-05 |
| A6C G35U A36G A52C U54A | < 1e-05 |
| C8G G9C A36G | < 1e-05 |

Variants of: B1
Assay: self-cleavage kobs at 160 uM GlcN6P; higher = faster cleavage; RNA array
Details: with glucosamine-6-phosphate
Outline: as §1

| Variant | self-cleavage kobs at 160 uM GlcN6P [s⁻¹] |
| --- | --- |
| G40U U47A G59U C71G | < 1e-05 |
| C8A G9A C16G U31C C61G C68U | < 1e-05 |
| A15U C16A U49C C61G | < 1e-05 |
| A33C G60A | < 1e-05 |
| C8G U46C A53C | < 1e-05 |
| C34G A39U G59U | < 1e-05 |
| C50A U54G | < 1e-05 |
| U45G U47C C61U | < 1e-05 |
| C8G G62C | < 1e-05 |
| G37U G44A G66U | < 1e-05 |
| C10U G35U G59U C71G | < 1e-05 |
| A6G A12U G32U | < 1e-05 |
| G35A A48G G51C A64C | < 1e-05 |
| G9C U69A C70U | < 1e-05 |
| G7C G41A C61A | < 1e-05 |
| A15G C34U G63A | < 1e-05 |
| G13C A64U | < 1e-05 |
| U55A G60A | < 1e-05 |
| A6C G38C G62C | < 1e-05 |
| A42G G51A C61G | < 1e-05 |
| U46G U55G G60C | < 1e-05 |
| G13C G35A A39U | < 1e-05 |
| A6U G35U A53C | < 1e-05 |
| C8U G13U U46A | < 1e-05 |

| Variant | self-cleavage kobs at 160 uM GlcN6P [s⁻¹] |
| --- | --- |
| G51U G62U A64C | < 1e-05 |
| G7C A12G A33U G51U | < 1e-05 |
| A6U C8G | < 1e-05 |
| G9U G32C G51C C58U | < 1e-05 |
| A12G G62A C67U | < 1e-05 |
| U45G U49G C70A C71G | < 1e-05 |
| C11A A39C U49C | < 1e-05 |
| G7A U31G A33U C68G | < 1e-05 |
| U30G G41C G60A | < 1e-05 |
| G9C C11A G37C U54A C70G | < 1e-05 |
| G32U G41U U57C | < 1e-05 |
| A14U C16G A33G G37A | < 1e-05 |
| G37C C58G | < 1e-05 |
| A6G G40U U65C | < 1e-05 |
| C8A A33U C70U | < 1e-05 |
| G32U G43U C61A | < 1e-05 |
| A36C G38C U56C | < 1e-05 |
| U47C G59A | < 1e-05 |
| U31C G43U U49C C67U | < 1e-05 |
| U54A C61G | < 1e-05 |
| C8A A15U U47C U55A G63C U65G | < 1e-05 |
| C10G G43U U46G C50U A52G | < 1e-05 |
| C8G G9C A36G | < 1e-05 |

Variants of: B1
Assay: self-cleavage kobs at 10000 uM GlcN6P; higher = faster cleavage; RNA array
Details: with glucosamine-6-phosphate
Outline: as §1

| Variant | self-cleavage kobs at 10000 uM GlcN6P [s⁻¹] |
| --- | --- |
| G7A C50A G63U | < 1e-05 |
| A33C G60A | < 1e-05 |
| C34G A39U G59U | < 1e-05 |
| C8G G62C | 3.7e-05 ± 8.1e-06 |
| G13C A64U | < 1e-05 |
| A6U C8G | < 1e-05 |
| G37C C58G | < 1e-05 |
| U54A C61G | < 1e-05 |
| A6C G41U C50G A53U U55C | < 1e-05 |
| C8G G9C A36G | < 1e-05 |

Variants of: B1
Assay: self-cleavage kobs at 640 uM GlcN6P; higher = faster cleavage; RNA array
Details: with glucosamine-6-phosphate
Outline: as §1

| Variant | self-cleavage kobs at 640 uM GlcN6P [s⁻¹] |
| --- | --- |
| C61G G63U | < 1e-05 |
| C58G G63U A64C | < 1e-05 |
